Assay results as given in ChEMBL document CHEMBL1201862, “PubChem BioAssay data set” (2004).
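Values below derive from 48-hour exposures of cells grown in 96-well plates, with endpoints linearly interpolated between the two concentrations bracketing the appropriate inhibition level. Abbreviation: GI50, concentration required for 50% inhibition of growth.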 Active and inactive are the calls of the source. Cut-off read from the data, not from the text of the source: active = GI50 up to about 1.1 µM and inactive = higher.

system: NCI-H322M; experiment: NCI-60 cell line screen, 48 h

SMILES | GI50
O=NN(CCCl)C(=O)NC1CCC(=O)NC1=O (stereo not given) | inactive: 528 µM
Cc1cc(S(=O)(=O)Nc2nc(N)nc(N(C)C)n2)c(S)cc1Cl | inactive: > 10 µM
COc1cc(Cl)c(CC(=O)c2c[nH]c3ccccc23)cc1OC | inactive: > 100 µM
CC(=O)Nc1ccc(S(=O)(=O)N=S(C)C)cc1 | inactive: > 100 µM
O=C1c2ccccc2C(=O)c2c1ccc(C(=O)O)c2-c1ccc2ccccc2c1 | inactive: 27.7 µM
c1cc(C2N3CCCN2CC3)ccn1 (stereo not given) | inactive: > 100 µM
CCN(CC)c1ccc(C(=C2C=CC(=[N+](CC)CC)C=C2)c2ccc(N(CC)CC)cc2)cc1 | active: 0.361 µM
CCCC(=O)OCC1(CO)C/C(=C/CC(C(C)C)C(C)C)C(=O)O1 (stereo not given) | inactive: > 100 µM
C=CC(=O)Nc1ccc(NC(=O)C=C)c2c1C(=O)c1ccccc1C2=O | inactive: 36.7 µM
N#C/C(N)=C(C#N)/N=C/NCCO | inactive: > 100 µM
COC1=CC2C(c3cc4ccccc4n3S(=O)(=O)c3ccccc3)CC1CN2C(=O)OCc1ccccc1 (stereo not given) | inactive: 33.8 µM
CC(=O)O[C@H]1CCC2[C@@H]3CCC4C(=O)c5oncc5C[C@]4(C)C3CC[C@@]21C (stereo not given in full) | inactive: > 100 µM
CC1=C(C)C(=O)OC(C(C)(O)C2(O)CCC3(O)C4CC(Cl)C5(O)C(O)C=CC(=O)C5(C)C4CCC32C)C1 (stereo not given) | inactive: 46.8 µM
CC[C@@H]1CC[C@@H]2[C@H](CC[C@]3(C)[C@@H](OS(=O)(=O)c4ccc(C)cc4)CC[C@@H]23)[C@H]1CO | inactive: > 100 µM
COc1cc(/C=C2\CC3C4CC=C5C[C@@H](O)CC[C@]5(C)C4CC[C@]3(C)\C2=N\O)cc(OC)c1OC (stereo not given in full) | inactive: 17.3 µM
CC(C)c1cccc(C(=O)NCCN(C)C)c1[N+](=O)[O-] | inactive: > 100 µM
COc1ccc(SS(=O)(=O)c2ccc(OC)cc2)cc1 | inactive: 34.4 µM
O=C1c2ccccc2C(=O)c2oc(Br)cc21 | inactive: 1.59 µM
CC1=C(C(=O)O)N2C(=O)[C@@H](NC(=O)C(c3ccccc3)N3CSC(=S)N(C(C)C)C3)C2SC1 (stereo not given in full) | inactive: > 100 µM
O=C1CCCC2=C1CC1=C(CCCC1=O)N2c1ccc(Cl)cc1 | inactive: > 100 µM
COC(=O)C(CC12CC3CC(CC(C3)C1)C2)NC(=O)C(N)CC(=O)O (stereo not given) | inactive: > 100 µM
O=C(c1ccc(Cl)cc1)N(C(=S)OCc1ccccn1)c1ccccc1 | inactive: > 100 µM
O=C(CC(=O)Nc1ccccc1)NNC(c1cc(/N=N/c2ccc(Br)cc2)ccc1O)P(O)O (stereo not given) | inactive: 1.68 µM
CC1=C(C)C1[N+](=O)[O-] | inactive: > 100 µM

SMILES | GI50
CS(=O)(=O)CSCSSCS(C)(=O)=O | inactive: 53.6 µM
CC(=O)/C(=C(/Br)I)c1ccccc1 | inactive: 15.6 µM
CN(C)/C(N)=N\C#N | inactive: > 100 µM
CNC(Cc1ccccc1)c1cccc(OC)c1O (stereo not given) | inactive: > 100 µM
CCOP(=O)(OCC)/C(F)=C/c1ccccc1 | inactive: > 100 µM
Nc1c2ccccc2nc2ccc(C(=O)Nc3ccc(S(N)(=O)=O)cc3)cc12 | inactive: > 100 µM
N#Cc1sc2nc3c(c(-c4ccccc4)c2c1N)CCCC3 | inactive: > 100 µM
COc1ccc(C2=C(Cl)c3cc(OC)c(OC)cc3C2=O)cc1OC | inactive: > 100 µM
CC(=O)OCC1OC(NC(=S)CCSc2nc3ccccc3c(=O)n2-c2ccccc2)C(OC(C)=O)C(OC(C)=O)C1OC(C)=O (stereo not given) | inactive: > 100 µM
O=c1[nH]nc(Nc2ccc(Cl)cc2)c2nnn(-c3ccc([N+](=O)[O-])cc3)c12 | inactive: 29.6 µM
CC(=O)OC[C@H]1On2nnnc2[C@H](OC(C)=O)[C@@H](OC(C)=O)[C@@H]1OC(C)=O | inactive: > 100 µM
Cc1c(C)c2c(c(N)c1C#N)C(=O)N(O)C2=O | inactive: > 100 µM
CC(C)(C)OC(=O)NC(Cc1ccc(OC(C)(C)C)cc1)C(=O)N[C@H]1CC[C@H](C(=O)O)C1 (stereo not given in full) | inactive: > 100 µM
CC1=C(C)CC2(CCCCC2=O)[S+]([O-])C1 (stereo not given) | inactive: > 100 µM
O=c1c(F)cn(Cc2c(Cl)cccc2Cl)c(=O)n1Cc1c(Cl)cccc1Cl | inactive: > 31.6 µM
O=C1CCC(=O)c2cc(Br)ccc2N1 | inactive: > 100 µM
Cc1ccc(C2=Nc3ccccc3SC(c3cccc4c3OCO4)C2)cc1 (stereo not given) | inactive: 18.7 µM
NC(=O)NC(=O)c1ccc(NC(=O)CBr)cc1 | inactive: 6.87 µM
O=c1[nH]c2ccc([N+](=O)[O-])c(Cl)c2c2ccccc12 | inactive: 7.98 µM
CC1(C)OCC(CO)(Nc2nc(N3CC3)nc(N3CC3)n2)CO1 | inactive: 22.1 µM
Cn1c2ccccc2c(=O)c2cccc(C(=O)NC(CS)C(=O)O)c21 (stereo not given) | inactive: > 100 µM
CC(C)(C)C1=CC(=C2C=Cc3cc(O)ccc3O2)C=C(C(C)(C)C)C1=O | inactive: 1.86 µM
CC(C)CCCCCCCCCCCCC(=O)NCC(=O)NC1C(C)OC(Nc2ncnc3c2ncn3C)C(O)C1O (stereo not given) | inactive: 8.18 µM
NCC#CCNCCCN1CC1 | inactive: > 100 µM

SMILES | GI50
CC1(C)OCC(C2OC(=O)C(OCc3ccccc3)=C2OCc2ccccc2)O1 (stereo not given) | inactive: > 100 µM
CC(C)C[C@H](NC(=O)CCc1ccccc1)B(O)O | inactive: 81.5 µM
COc1cc(OCc2ccc3nc(-c4ccccc4)c(Cl)nc3c2)cc(OC)c1OC | inactive: > 100 µM
CSc1ccc(/C=C/C(=O)c2nc3ccccc3[nH]2)cc1 | inactive: 19.4 µM
Cc1cc2nc3c(=O)[nH]c(=O)nc-3n(CC(O)C(O)C(O)CO)c2cc1N (stereo not given) | inactive: > 100 µM
O=C(O)Cc1cccc2c1OC(c1ccccc1)C(C(=O)c1ccccc1)C2=O (stereo not given) | inactive: 57.9 µM
Cc1cc(C)c2c(=O)n(CC(O)CN3CCN(CCOCCO)CC3)sc2n1 (stereo not given) | inactive: 37.7 µM
COc1cc2oc(=O)ccc2cc1C(=O)CC(C)C | inactive: > 100 µM
O=C(COc1ccccc1Cl)N1N=C(c2ccc(Cl)cc2)CC1(O)c1ccccc1 (stereo not given) | inactive: > 100 µM
CCOC(=O)C(Cl)(NC(=O)c1c(F)c(F)c(F)c(F)c1F)C(F)(F)F (stereo not given) | inactive: > 100 µM
CN(C)CC(NC(NCS)C(=O)NCCNc1ccc(NCCNC(=O)C(NCS)NC(CN(C)C)OCCl)c2c1C(=O)c1c(O)ccc(O)c1C2=O)OCCl (stereo not given) | active: 0.52 µM
CCOP1(=O)OCC2OC(n3cnc4c(N)ncnc43)C(O)C2O1.c1ccccc1 (stereo not given) | inactive: > 100 µM
OC1(C23CC4CC(CC(C4)C2)C3)CSCC1(O)C12CC3CC(CC(C3)C1)C2 (stereo not given) | inactive: > 100 µM
Cc1c(N/C=C(\C#N)C(=O)c2ccc(Cl)cc2)c(=O)n(-c2ccccc2)n1C | inactive: > 100 µM
CC[C@@H]([C@H](O)c1ccccc1Cl)[N+](=O)[O-] | inactive: > 100 µM
CCN1CCCC(C#N)(c2ccccc2)CC1 (stereo not given) | inactive: > 100 µM
COC(=O)C1=CC2OC1(C)CCC2=O (stereo not given) | inactive: > 100 µM
C[N+](C)(C)CC(=O)N/N=C(\CCC(=O)NCCc1ccccc1)CC(=O)c1ccccc1 | inactive: > 100 µM
O=C(O)c1ccc(Nc2nc3cc(C(F)(F)F)ccc3nc2C(=O)O)cc1 | inactive: > 100 µM
COC(=O)C1Cc2c([nH]c3ccccc23)[C@H](CC(C)C)N1 (stereo not given in full) | inactive: > 100 µM
Cc1cccc(C)c1N1C(=O)C(=O)C(c2nc3ccccc3s2)/C(=N/c2cccc3c(=O)[nH][nH]c(=O)c23)C1=O (stereo not given) | inactive: > 100 µM
CC[C@@H](/C=C\CCC(=O)C[C@H](O)CCC=C(C)C)O[Si](C(C)C)(C(C)C)C(C)C | inactive: > 100 µM
Fc1ccc(C2SCc3nc4ccccc4n32)cc1 (stereo not given) | inactive: > 100 µM
COc1ccccc1NC(=O)C1=C(C)NC(C)=C(C(=O)Nc2ccccc2OC)C1c1ccc(C(C)C)cc1 | inactive: > 100 µM

SMILES | GI50
COc1cc2c(cc1[N+](=O)[O-])C(=O)C(Br)(Br)CCC2 | inactive: 15.7 µM
CC(C)[Si](OC1=C(C(=O)N(C)c2ccccc2Cl)CCCC1)(C(C)C)C(C)C | inactive: 14.1 µM
CN(O)C(=O)/C=C/c1ccc(OCc2cccc(Cl)c2)cc1 | inactive: 18.7 µM
Nc1nc(N)nc(-c2ccccc2NS(=O)(=O)c2ccc([N+](=O)[O-])cc2)n1 | inactive: > 100 µM
CN1C=C(C(N)=O)Cc2ccsc21 | inactive: > 100 µM
COc1ccc2nc3cc([N+](=O)[O-])ccc3c(NNc3ccc(Cl)cc3)c2c1 | inactive: 46.9 µM
CCOC(=O)CCc1c(C)c2c(O)cc(O)cc2oc1=O | inactive: > 100 µM
CC1=CC(=O)c2cccc(NC3=NCCO3)c21 | inactive: > 100 µM
Cn1/c(=N\N=C(\CNCCO)[C@@H](O)[C@@H]2OC(c3ccccc3)OC[C@H]2O)sc2ccccc21 (stereo not given in full) | inactive: 18.9 µM
OC(C#CCN1CCCC1)(c1ccccc1)c1ccccc1Cl (stereo not given) | inactive: 36.5 µM
O=C1c2ccccc2C(=O)C2NC(CCCCCSSCCCCCC3=NC4C(=O)c5ccccc5C(=O)C4N3)=NC12 (stereo not given) | inactive: > 100 µM
CCCCCCCCCCCCCCCCOc1ccc(/C=C/C2=[N+](CCCl)CCO2)cc1 | inactive: > 100 µM
Nc1cc2c3c(c1)Oc1cc(N)cc4c1C3c1c(cc(N)cc1O4)O2 | inactive: 25.8 µM
COC(=O)c1cc(Cl)ccc1NC(=O)c1ccc([N+](=O)[O-])cc1 | inactive: 23.2 µM
COC(=O)C1=C(O)C(O)=C(C(=O)OC)CC1 | inactive: > 100 µM
C/C(=N\NC(N)=S)c1ccccn1.OB(O)c1ccccc1 | inactive: 10 µM
COC1=CC(=O)C2C(C1=O)C(c1ccc(OC)c(OC)c1)[C@H]2C (stereo not given in full) | inactive: > 100 µM
CC(=O)O[C@@H]1C(C2CCCCC2)C=[N+]([O-])O[C@@H]1OC1CCCC1(c1ccccc1)c1ccccc1 (stereo not given in full) | inactive: 17.1 µM
CCCCCC/C=C/CCCCCCCc1cccc(O)c1C(=O)O | inactive: > 100 µM
CCc1ccccc1NC(=O)c1cccc([N+](=O)[O-])c1O | inactive: 24.5 µM
CS(=O)(=O)c1ccc2nc(-c3ccc(O)cc3)sc2c1 | inactive: 16.6 µM
c1ccc2c(c1)CCN1CCc3c([nH]c4ccccc34)C21 (stereo not given) | inactive: 50.9 µM
O=c1c2cc(Cl)ccc2n2nnc3ccc(NCCNCCO)c1c32 | active: 1.04 µM
